Experimental data from the supplement of paper PMC8728848.
The other results are listed elsewhere or left out.

Tests used:
Assay in all cases: glycan array binding signal (z-score within array); higher = stronger binding
Conditions in all cases: glycan notation: IUPAC condensed, linker removed
[1] = biological target: Gal(b1-4)GlcNAc(b1-3)Gal(b1-4)GlcNAc(b1-3)Gal(b1-4)GlcNAc(b1-3)Gal(b1-4)GlcNAc(b1-2)Man(a1-3)[Gal(b1-4)GlcNAc(b1-3)Gal(b1-4)GlcNAc(b1-3)Gal(b1-4)GlcNAc(b1-3)Gal(b1-4)GlcNAc(b1-2)Man(a1-6)]Man(b1-4)GlcNAc(b1-4)GlcNAc
Summary of the method: (§1)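 The binding signal is a Z-score computed within each array and averaged over linkers. Arrays of the same protein sequence at different concentrations or buffers were also averaged together. Data originate from 3228 arrays in the Consortium for Functional Glycomics database, kept only where the protein sequence was available.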

[2] = biological target: Gal(b1-4)GlcNAc(b1-3)Gal(b1-4)GlcNAc(b1-3)Gal(b1-4)GlcNAc(b1-3)Gal(b1-4)GlcNAc(b1-2)Man(a1-3)[Gal(b1-4)GlcNAc(b1-3)Gal(b1-4)GlcNAc(b1-3)Gal(b1-4)GlcNAc(b1-3)Gal(b1-4)GlcNAc(b1-2)Man(a1-6)]Man(b1-4)GlcNAc(b1-4)[Fuc(a1-6)]GlcNAc
Summary of the method: as §1

[3] = biological target: Gal(b1-4)GlcNAc(b1-3)Gal(b1-4)GlcNAc(b1-3)Gal(b1-4)GlcNAc(b1-3)Gal(b1-4)GlcNAc(b1-2)[Gal(b1-4)GlcNAc(b1-3)Gal(b1-4)GlcNAc(b1-3)Gal(b1-4)GlcNAc(b1-3)Gal(b1-4)GlcNAc(b1-6)]Man(a1-6)[Gal(b1-4)GlcNAc(b1-3)Gal(b1-4)GlcNAc(b1-3)Gal(b1-4)GlcNAc(b1-3)Gal(b1-4)GlcNAc(b1-2)Man(a1-3)]Man(b1-4)GlcNAc(b1-4)[Fuc(a1-6)]GlcNAc
Summary of the method: as §1

[4] = biological target: Gal(b1-4)GlcNAc(b1-3)Gal(b1-4)GlcNAc(b1-3)Gal(b1-4)GlcNAc(b1-3)Gal(b1-4)GlcNAc(b1-3)Gal(b1-4)GlcNAc(b1-2)Man(a1-3)[Gal(b1-4)GlcNAc(b1-3)Gal(b1-4)GlcNAc(b1-3)Gal(b1-4)GlcNAc(b1-3)Gal(b1-4)GlcNAc(b1-3)Gal(b1-4)GlcNAc(b1-2)Man(a1-6)]Man(b1-4)GlcNAc(b1-4)GlcNAc
Summary of the method: as §1

[5] = biological target: Gal(b1-4)GlcNAc(b1-3)Gal(b1-4)GlcNAc(b1-3)Gal(b1-4)GlcNAc(b1-3)Gal(b1-4)GlcNAc(b1-3)Gal(b1-4)GlcNAc(b1-2)Man(a1-3)[Gal(b1-4)GlcNAc(b1-3)Gal(b1-4)GlcNAc(b1-3)Gal(b1-4)GlcNAc(b1-3)Gal(b1-4)GlcNAc(b1-3)Gal(b1-4)GlcNAc(b1-2)Man(a1-6)]Man(b1-4)GlcNAc(b1-4)[Fuc(a1-6)]GlcNAc
Summary of the method: as §1

[6] = biological target: Gal(b1-4)GlcNAc(b1-3)Gal(b1-4)GlcNAc(b1-3)Gal(b1-4)GlcNAc(b1-3)Gal(b1-4)GlcNAc(b1-3)Gal(b1-4)GlcNAc(b1-2)[Gal(b1-4)GlcNAc(b1-3)Gal(b1-4)GlcNAc(b1-3)Gal(b1-4)GlcNAc(b1-3)Gal(b1-4)GlcNAc(b1-3)Gal(b1-4)GlcNAc(b1-6)]Man(a1-6)[Gal(b1-4)GlcNAc(b1-3)Gal(b1-4)GlcNAc(b1-3)Gal(b1-4)GlcNAc(b1-3)Gal(b1-4)GlcNAc(b1-3)Gal(b1-4)GlcNAc(b1-2)Man(a1-3)]Man(b1-4)GlcNAc(b1-4)[Fuc(a1-6)]GlcNAc
Summary of the method: as §1

[7] = biological target: Gal(b1-4)GlcNAc(b1-3)Gal(b1-4)GlcNAc(b1-3)Gal(b1-4)GlcNAc(b1-3)Gal(b1-4)GlcNAc(b1-3)Gal(b1-4)GlcNAc(b1-3)Gal(b1-4)GlcNAc(b1-2)Man(a1-3)[Gal(b1-4)GlcNAc(b1-3)Gal(b1-4)GlcNAc(b1-3)Gal(b1-4)GlcNAc(b1-3)Gal(b1-4)GlcNAc(b1-3)Gal(b1-4)GlcNAc(b1-3)Gal(b1-4)GlcNAc(b1-2)Man(a1-6)]Man(b1-4)GlcNAc(b1-4)GlcNAc
Summary of the method: as §1

[8] = biological target: Gal(b1-4)GlcNAc(b1-3)Gal(b1-4)GlcNAc(b1-3)GalNAc
Summary of the method: as §1

[9] = biological target: Gal(b1-4)GlcNAc(b1-3)Gal(b1-4)GlcNAc(b1-3)[Gal(b1-4)GlcNAc(b1-3)Gal(b1-4)GlcNAc(b1-6)]GalNAc
Summary of the method: as §1

[10] = biological target: Gal(b1-4)GlcNAc(b1-3)Gal(b1-4)GlcNAc(b1-6)[Gal(b1-3)]GalNAc
Summary of the method: as §1

[11] = biological target: Gal(b1-4)GlcNAc(b1-3)Gal(b1-4)[Fuc(a1-3)]GlcNAc(b1-3)Gal(b1-4)[Fuc(a1-3)]GlcNAc
Summary of the method: as §1

[12] = biological target: Gal(b1-4)GlcNAc(b1-3)GalNAc
Summary of the method: as §1

[13] = biological target: Gal(b1-4)GlcNAc(b1-3)[Fuc(a1-3)GlcNAc(b1-6)]Gal(b1-4)Glc
Summary of the method: as §1

[14] = biological target: Gal(b1-4)GlcNAc(b1-3)[Gal(b1-4)GlcNAc(b1-6)]Gal(b1-4)GlcNAc
Summary of the method: as §1

[15] = biological target: Gal(b1-4)GlcNAc(b1-3)[GlcNAc(b1-6)]Gal(b1-4)GlcNAc
Summary of the method: as §1

[16] = biological target: Gal(b1-4)GlcNAc(b1-6)Gal(b1-4)GlcNAc
Summary of the method: as §1

[17] = biological target: Gal(b1-4)GlcNAc(b1-6)GalNAc
Summary of the method: as §1

[18] = biological target: Gal(b1-4)GlcNAc(b1-6)[Gal(b1-3)]GalNAc
Summary of the method: as §1

[19] = biological target: Gal(b1-4)GlcNAc(b1-6)[Gal(b1-4)GlcNAc(b1-3)]GalNAc
Summary of the method: as §1

[20] = biological target: Gal(b1-4)GlcNAc6P
Summary of the method: as §1

[21] = biological target: Gal(b1-6)Gal
Summary of the method: as §1

[22] = biological target: Gal3S(b1-3)GalNAc
Summary of the method: as §1

[23] = biological target: Gal3S(b1-3)GlcNAc
Summary of the method: as §1

B1: Threefoil (Haloarcula marismortui) (protein)
chain: GSSHHHHHHHHHHSSGLVPRGSHMGDGYYKLVARHSGKALDVENASTSDGANVIQYSYSGGDNQQWRLVDLGDGYYKLVARHSGKALDVENASTSDGANVIQYSYSGGDNQQWRLVDLGDGYYKLVARHSGKALDVENASTSDGANVIQYSYSGGDNQQWRLVDL
glycan array binding signal (z-score) [1]: 2.81
glycan array binding signal (z-score) [2]: 3.74
glycan array binding signal (z-score) [3]: 7.31
glycan array binding signal (z-score) [4]: 2.57
glycan array binding signal (z-score) [5]: 2.83
glycan array binding signal (z-score) [6]: 3.49
glycan array binding signal (z-score) [7]: 0.376
glycan array binding signal (z-score) [8]: 0.08
glycan array binding signal (z-score) [9]: 0.065
glycan array binding signal (z-score) [10]: -0.066
glycan array binding signal (z-score) [11]: -0.029
glycan array binding signal (z-score) [12]: -0.171
glycan array binding signal (z-score) [13]: 3.85
glycan array binding signal (z-score) [14]: 1.36
glycan array binding signal (z-score) [15]: 0.055
glycan array binding signal (z-score) [16]: 0.046
glycan array binding signal (z-score) [17]: -0.136
glycan array binding signal (z-score) [18]: 0.011
glycan array binding signal (z-score) [19]: 0.738
glycan array binding signal (z-score) [20]: -0.167
glycan array binding signal (z-score) [21]: -0.053
glycan array binding signal (z-score) [22]: -0.221
glycan array binding signal (z-score) [23]: -0.239
